# Assay results reported in the supplement of paper PMC7266297.
# Values joined by “and” are separate entries in the source; they are usually repeats but may differ in a detail not shown here. Identical values can stand only once. Counter-ions that a name gives are not always drawn. The list shows a part of the results. Repeats are few or missing, and single values can be far off.
# What was measured:
# KB-3-1 = assay: growth inhibition relative to DMSO control (SRB); cervical cancer cells: KB-3-1 is the parent and KB-V1 overexpresses MDR1; SRB is the sulforhodamine B stain; higher = more growth inhibition; details: 1 µM; 72 h
# KB-V1 = assay: as above; details: 1 µM; 72 h
# 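Also: Read-out is SRB optical density at 490 nm, with the control being wells given 0.5% DMSO vehicle, and compound added one day after cells were plated.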
Structure (SMILES),growth inhibition (KB-3-1),growth inhibition (KB-V1)
Oc1c2ccccc2c2c3c(cccc13)N=N2,42.6%,23.9%
O=S(=O)(NCCNC/C=C/c1ccc(Br)cc1)c1cccc2cnccc12,27.9%,11.6%
CC(C)c1cc(-c2n[nH]c(=O)n2-c2ccc3c(ccn3C)c2)c(O)cc1O [Ganetespib (STA-9090)],86.2%,74.5%
CC(C)[C@H]1CC[C@H](C(=O)N[C@H](Cc2ccccc2)C(=O)O)CC1 [Nateglinide],< 0%,3.19%
C=CCc1ccc(O)c(-c2ccc(O)c(CC=C)c2)c1 [Honokiol],< 0%,6.54%
CCN(CC)CC#CCOC(=O)C(O)(c1ccccc1)C1CCCCC1 (stereo not drawn) [Oxybutynin chloride],< 0%,20.8%
CCOC(=O)[C@H](CCc1ccccc1)N[C@H]1CS[C@H](c2cccs2)CN(CC(=O)O)C1=O [Temocapril HCl],95.5%,85%
C[C@H](NC(=O)[C@@H](O)c1cc(F)cc(F)c1)C(=O)N[C@@H]1C(=O)N(C)c2ccccc2-c2ccccc21,40.7%,75.6%
Cc1ccc(=O)n(-c2ccccc2)c1 [Pirfenidone],< 0%,12.4%
O=C1[C@H](Cc2ccc(O)cc2)N2C(=O)CCN(C(=O)NCc3ccccc3)[C@H]2CN1Cc1cccc2ccccc12,< 0%,< 0%
CCS(=O)(=O)c1cccc(-c2cc(C(=O)NC3CCN(C)CC3)c(C)c3[nH]c4ncc(C)cc4c23)c1,55.6%,14.1%
C[C@@H]1CCN(C(=O)CC#N)C[C@@H]1N(C)c1ncnc2[nH]ccc12,15.8% and < 0%,–
N#Cc1cc(CN2CCC(Nc3ncnc4sc(Cl)cc34)CC2)ccc1F,37.9%,10.5%
O=C(O)c1ccc(N2C(=O)/C(=C\c3ccc(-c4ccc([N+](=O)[O-])cc4)o3)C=C2c2ccccc2)cc1,< 0%,< 0%
COc1cccc2c1C(=O)c1c(O)c3c(c(O)c1C2=O)C[C@@](O)(C(C)=O)C[C@@H]3O[C@H]1C[C@H](N)[C@H](O)[C@H](C)O1 [Daunorubicin HCl],9.55%,23.7%
COc1cc(OC)c(/C=C/S(=O)(=O)Cc2ccc(OC)c(NCC(=O)O)c2)c(OC)c1,8.77%,29.6%
COCCc1ccc(OCC(O)CNC(C)C)cc1 (stereo not drawn) [Metoprolol Tartrate],52.2%,19.6%
Cc1cc(C)nc(NS(=O)(=O)c2ccc(NC(=S)NC(=O)COc3ccc(Br)cc3Cl)cc2)n1,0.442%,< 0%
Cc1cc(C(C)Nc2ccccc2)c2nc(N3CCOCC3)cc(=O)n2c1 (stereo not drawn),22.8%,36.9%
N#CSc1cc(SC#N)c(N)nc1N,7.8%,< 0%
COc1cc(Nc2ncc3c(n2)-c2ccc(Cl)cc2C(c2c(F)cccc2OC)=NC3)ccc1C(=O)O [Alisertib (MLN8237)],69.1%,89.5%
Nc1nccc2c1ncn2C1C=C(CO)C(O)C1O (stereo not drawn) [3-Deazaneplanocin A (DZNeP)],65.7%,35.2%
O=C(O)COCCN1CCN(C(c2ccccc2)c2ccc(Cl)cc2)CC1 (stereo not drawn) [Cetirizine DiHCl],14.1%,39.9%
COC[C@H](NC(=O)c1cnc(C)s1)C(=O)N[C@@H](COC)C(=O)N[C@@H](Cc1ccccc1)C(=O)[C@@]1(C)CO1 [Oprozomib (ONX 0912)],100%,100%

Structure (SMILES),growth inhibition (KB-3-1),growth inhibition (KB-V1)
CC(C)N(CCCNC(=O)Nc1ccc(C(C)(C)C)cc1)C[C@H]1O[C@@H](n2ccc3c(N)ncnc32)[C@H](O)[C@@H]1O,< 0% and 7.63%,< 0% and 19.7%
Nc1c(Br)cc(Br)cc1CN[C@H]1CC[C@H](O)CC1 [Ambroxol HCl],< 0%,5.56%
Oc1nc(-c2ccc(C(F)(F)F)cc2)nc2c1CSCC2,37.7%,45.8%
CC(C)CN(C[C@@H](O)[C@H](Cc1ccccc1)NC(=O)O[C@H]1CCOC1)S(=O)(=O)c1ccc(N)cc1 [Amprenavir],28%,7.28%
COc1cc(OC2CCN(C)CC2)ccc1Nc1ncc2c(n1)n(C1CCCC1)c(=O)n2C,< 0%,27.9%
CCCCOc1c(C(=O)c2c(F)cc(C)cc2F)c[nH]c2nncc1-2,81.6%,52.9%
CC(=O)OCC[N+](C)(C)C [Acetylcholine Chloride],46.6%,22.1%
"Cc1ccc2c(c1)C(=O)C1(O)CCN(c3ccccc3)C1=N2 (single isomer, unassigned; (-)) [(-)-Blebbistatin]",13.7%,1.41%
CCN1CCC[C@H]1CNC(=O)c1cc(S(N)(=O)=O)ccc1OC [Levosulpiride],< 0%,17.8%
CC#CCn1c(N2CCC[C@@H](N)C2)nc2c1c(=O)n(Cc1nc(C)c3ccccc3n1)c(=O)n2C [Linagliptin],0.562%,3.17%
CC(C(O)c1ccc(O)cc1)N1CCC(Cc2ccccc2)CC1 (stereo not drawn) [Ifenprodil Tartrate],3.41%,< 0%
CC(C)c1onc(-c2c(Cl)cccc2Cl)c1COc1ccc(/C=C/c2cccc(C(=O)O)c2)c(Cl)c1,26.4%,62.8%
O=C(c1ccc(Nc2nccc(-c3cc4ccccc4s3)n2)cc1)N1CCC(N2CCCC2)CC1 [IKK-16 (IKK Inhibitor VII)],45%,12.7%
CC(C)CCNC(=O)[C@H](CC(C)C)NC(=O)[C@H]1O[C@@H]1C(=O)O [Loxistatin Acid (E-64C)],50%,10.5%
Nc1cccc2c1CN(C1CCC(=O)NC1=O)C2=O (stereo not drawn) [Lenalidomide (CC-5013)],28.2%,22.2%
CCc1cccc(CC)c1NC(=O)N1Cc2[nH]nc(NC(=O)c3ccc(N4CCN(C)CC4)cc3)c2C1,76%,29.7%
O=c1cc(-c2ccc(O)c(O)c2)oc2cc(O)cc(O)c12 [Luteolin],< 0%,6.54%
Cc1c(Nc2ncccc2C(=O)O)cccc1C(F)(F)F [Flunixin Meglumin],< 0%,32.7%
CCN(CC)CCCC(C)Nc1nc(C)cc(Nc2ccc3nc(C)cc(N)c3c2)n1 (stereo not drawn),51.1%,6.79%
CN(C[C@@H]1COCCO1)S(=O)(=O)Nc1ccc2ccc3ncc(-c4cnn(C)c4)cc3c(=O)c2c1,19.9%,53.5%
CC(=O)c1cc([N+](=O)[O-])c(Sc2ccc(F)cc2F)s1,< 0%,< 0%
CCOc1cc([C@@H](CS(C)(=O)=O)N2C(=O)c3cccc(NC(C)=O)c3C2=O)ccc1OC,43.7%,5.56%
O=C(NNc1ccccc1)c1ccncc1,37.2%,19.1%
O=C1CCC(N2C(=O)c3ccccc3C2=O)C(=O)N1 (stereo not drawn) [Thalidomide],44.5%,31.7%

Structure (SMILES),growth inhibition (KB-3-1),growth inhibition (KB-V1)
COc1cc2c(cc1-c1c(C)noc1C)ncc1[nH]c(=O)n([C@H](C)c3ccccn3)c12,53.1%,67.6%
N#Cc1ccc2[nH]c(O)c(-c3ccc(CN4CCOCC4)cn3)c2c1,< 0%,< 0%
Clc1ccc(Nc2nnc(Cc3ccncc3)c3ccccc23)cc1 [Vatalanib (PTK787) 2HCl],70.5%,30.2%
N[C@@H](CC(=O)N1CCn2c(nnc2C(F)(F)F)C1)Cc1cc(F)c(F)cc1F [Sitagliptin phosphate monohydrate],< 0%,11%
CCN1CCN(Cc2ccc(-c3cc4c(N[C@H](C)c5ccccc5)ncnc4[nH]3)cc2)CC1,41%,21.1%
NC(=O)N1c2ccccc2CC(=O)c2ccccc21 [Oxcarbazepine],12.4%,32.3%
N#C/C(=C\c1ccc(O)c(O)c1)C(=O)NCc1ccccc1 [AG-490 (Tyrphostin B42)],33.5%,35.4%
Cc1ccnc2c1NC(=O)c1cccnc1N2C1CC1 [Nevirapine],45.3%,19.6%
COc1c(C)c(C(=O)c2ccc(N)c(C(=O)O)c2)n2ccccc12,< 0%,< 0%
CCCCc1nc(Cl)c(CO)n1Cc1ccc(-c2ccccc2-c2nnn[nH]2)cc1 [Losartan Potassium (DuP 753)],12.9%,34.5%
Nc1ncn([C@@H]2O[C@H](CO)[C@@H](O)[C@H]2O)c(=O)n1 [Azacitidine],63.7%,31.4%
CC(C)(C)c1cc(/C=C(\C#N)C(N)=S)cc(C(C)(C)C)c1O [Tyrphostin AG 879],21%,3.93%
CC(C=CC(=O)NO)=CC(C)C(=O)c1ccc(N(C)C)cc1 (stereo not drawn) [Trichostatin A (TSA)],96.8%,97.7%
Cn1cc(/C=C2\C(=O)Nc3cccnc32)c2ccccc21,31%,3.61%
CCCC(=O)OCOC(=O)C1=C(C)NC(C)=C(C(=O)OC)C1c1cccc(Cl)c1Cl (stereo not drawn) [Clevidipine Butyrate],25.5%,33.9%
N#CC(=C(/N)Sc1ccccc1N)/C(C#N)=C(\N)Sc1ccccc1N,19.7%,31.5%
O=C(O)[C@]1(Cc2cccc(Nc3nccs3)n2)CC[C@@H](Oc2cccc(Cl)c2F)CC1,85.2%,83.8%
C[C@H](Oc1cc(-c2cnn(C3CCNCC3)c2)cnc1N)c1c(Cl)ccc(F)c1Cl [(S)-crizotinib],63.7%,17.9%
COC(=O)C1=C(C#N)NC(C)=C(C(=O)OC(C)C)C1c1cccc([N+](=O)[O-])c1 (stereo not drawn) [Nilvadipine],< 0%,< 0%
COc1cc2c(cc1OC)[C@@H]1Cc3ccc(OC)c(OC)c3CN1CC2 [Rotundine],40.7%,34.6%
Cn1c(=O)c2[nH]cnc2n(C)c1=O [Aminophylline],32.7%,12.8%
C[C@]12C=CC(=O)N[C@@H]1CC[C@@H]1[C@@H]2CC[C@]2(C)[C@@H](C(=O)Nc3cc(C(F)(F)F)ccc3C(F)(F)F)CC[C@@H]12 [Dutasteride],40.3%,42.8%
COc1ccc2cc(CCC(C)=O)ccc2c1 [Nabumetone],9.37%,1.95%
C=CC(=O)Nc1cccc(Oc2nc(Nc3ccc(N4CCN(C)CC4)cc3OC)ncc2Cl)c1,40.1%,39.9%
